Screen size: about 410,000 compounds; about 1,200 (0.29%) were called active. Inconclusive results, whose numbers are uncertain, are shown with a selection of clear calls. Calls follow the shape of the dose curve; as a rule, active = well fitted activation curve with a large enough effect; inconclusive = small, poorly fitted or top-dose-only effect; inactive = flat fitted curve, though single readings scatter. Where the call is inconclusive, the potency comes from a doubtful curve fit.
Experiment: qHTS of Nrf2 Activators; also: nearly all actives have a fitted effect of over 65% in size; as to activation: % of control where 0% means no effect
Conditions: AREc32 ARE-luciferase reporter (MCF7-derived line), luminescence, 24 h; activation: at 46.1 µM (top of the series)
Outline: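 Each well held 1000 AREc32 cells, which were incubated with compound for 24 hr at 37 deg C after overnight attachment, and ARE reporter activity was quantified by firefly luciferase luminescence.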
Potency is read from the fitted curve at half-maximal effect; tags tell the direction and shape of the fitted curve.

Question: For `CCNC(=O)C1(C)CCN1CCC(=O)c1ccc(Br)cc1` (stereo not given), which Potency is on record?
Answer: inconclusive: 25.1 µM [activator, single point]

Question: Which Potency does the source give for `Cc1ccc(Cn2ncc(Cl)c(Cl)c2=O)cc1` here?
Answer: inconclusive: 3.55 µM [activator, partial curve, poor fit]

Question: Which Potency does the source give for `Cn1cnnc1Sc1ccc(/C=C/C(=O)c2ccc(O)cc2)cc1[N+](=O)[O-]` here?
Answer: inconclusive: 3.55 µM [activator, full curve, poor fit]

Question: Which Potency does the source give for `O=C(Nc1ccc(Br)cc1)c1ccco1` here?
Answer: inconclusive: 20 µM [activator, single point]

Question: For `c1ccc(-c2nnc(-c3ccccn3)s2)nc1`, which Potency is on record?
Answer: inconclusive: 2.24 µM [activator, partial curve, poor fit]

Question: Which Potency does the source give for `CCOC(=O)Nc1ccc2c(c1)N(C(=O)CCN(CC)CC)c1ccccc1S2=O` (stereo not given) here?
Answer: inconclusive: 3.16 µM [activator, single point]

Question: Which Potency does the source give for `C/C(=C\c1cccc(Br)c1)C(=O)c1c(C)cc(C)[nH]c1=O` here?
Answer: inconclusive: 28.2 µM [activator, single point]

Question: With `COc1ccc(/C=N/NC(=S)SC)cc1OC` as the compound, how does the Potency read?
Answer: inconclusive: 22.4 µM [activator, single point]

Question: For `O=C(COC(=O)CNC(=O)c1ccc([N+](=O)[O-])o1)Nc1ncc(Cl)cc1Cl`, which Potency is on record?
Answer: inconclusive: 31.6 µM [activator, single point]

Question: For `Cc1ccc(NCCCn2ccc(NC(=O)OCc3ccccc3)nc2=O)cc1C`, which “activation” value is on record?
Answer: inactive: 4.93%

Question: For `O=C(CSc1nc(-c2ccco2)cc(C(F)(F)F)n1)N1CCc2ccccc2C1`, which Potency is on record?
Answer: inconclusive: 11.2 µM [activator, single point]

Question: For `CC(/C=C/c1ccccc1)=N/NC(=O)c1cccc(Br)c1`, which Potency is on record?
Answer: inconclusive: 31.6 µM [activator, single point]

Question: With `COc1ccc(NC(=O)CC2C(=O)N(c3ccc(Cl)cc3)C(=S)N2CCc2ccccn2)cc1` (stereo not given) as the compound, how does the Potency read?
Answer: inconclusive: 35.5 µM [activator, partial curve, poor fit]

Question: Which Potency does the source give for `O=C(Nc1ccc2ccccc2c1)c1ccccc1F` here?
Answer: inconclusive: 2.82 µM [activator, full curve, poor fit]

Question: For `CC(C)N1CCOC1c1ccccc1` (stereo not given), which “activation” value is on record?
Answer: inactive: -0.457%

Question: Which Potency does the source give for `C[C@@H]1[C@H](O)C[C@@]23COC(=O)C2=CCC[C@@H]3[C@@]1(C)CC/C(=C/CO)CO` here?
Answer: inconclusive: 17.8 µM [activator, single point]

Question: Which Potency does the source give for `COc1cccc(-n2nc(C#N)c(Cl)cc2=O)c1` here?
Answer: inconclusive: 5.62 µM [activator, single point]

Question: Which “activation” value does the source give for `COc1cccc(OC)c1OCCCCN1CCC(Cc2ccccc2)CC1` here?
Answer: inactive: 0.35%

Question: With `COc1ccc(/C=C/C(=O)c2ccc(NC(=O)c3cccs3)cc2)cc1OC` as the compound, how does the Potency read?
Answer: inconclusive: 17.8 µM [activator, single point]

Question: For `CCCCn1c(N)c(N(CCC(C)C)C(=O)CCCc2nc3ccccc3s2)c(=O)[nH]c1=O`, which “activation” value is on record?
Answer: inactive: -0.518%

Question: For `Nc1ccccc1C(=O)/C=C/c1ccc2c(c1)OCO2`, which Potency is on record?
Answer: inconclusive: 3.16 µM [activator, partial curve, poor fit]

Question: With `O=C(N/N=C/c1c(Cl)nc2ccccn2c1=O)c1cccnc1` as the compound, how does the Potency read?
Answer: active: 14.1 µM

Question: With `O=c1oc(CCCO)cc2ccc(C#Cc3ccsc3)cc12` as the compound, how does the Potency read?
Answer: inconclusive: 1.41 µM [activator, full curve, poor fit]

Question: For `O=C(Nc1cccs1)Nc1cc(C(F)(F)F)ccc1Cl`, which Potency is on record?
Answer: inconclusive: 3.16 µM [activator, single point]

Question: For `O=C(CCN1C(=O)C2C3C=CC(C3)C2C1=O)NCc1cccnc1` (stereo not given), which “activation” value is on record?
Answer: inactive: -0.843%

Question: Which Potency does the source give for `O=C(Nc1ccc(F)cc1)c1sccc1SCc1cccc(C(F)(F)F)c1` here?
Answer: inconclusive: 5.62 µM [activator, full curve, poor fit]

Question: For `N#CCc1ccc(OC(=O)c2cccnc2Cl)cc1`, which Potency is on record?
Answer: inconclusive: 12.6 µM [activator, partial curve, poor fit]

Question: With `CCCCCOc1ccc(CN2CCOCC2)cc1Cl` as the compound, how does the “activation” value read?
Answer: inactive: 1.98%

Question: With `CCc1ccc(S(=O)(=O)c2nnn3c2nc(NCc2cccs2)c2sccc23)cc1` as the compound, how does the “activation” value read?
Answer: inactive: -0.134%

Question: Which Potency does the source give for `N/C(=N\OC(=O)c1cccc(Br)c1)c1ccccc1` here?
Answer: active: 7.08 µM

Question: For `CCOC(=O)Cn1c(=O)oc2cc(S(=O)(=O)Nc3cc(OC)cc(OC)c3)ccc21`, which “activation” value is on record?
Answer: inactive: -0.151%

Question: For `Cc1ccc2ncnc(Nc3cccc([N+](=O)[O-])c3)c2c1`, which Potency is on record?
Answer: inconclusive: 2.24 µM [activator, full curve, poor fit]

Question: With `Cc1cccc(Cn2ncc(Cl)c(Cl)c2=O)c1` as the compound, how does the Potency read?
Answer: inconclusive: 3.55 µM [activator, single point]

Question: Which Potency does the source give for `Cc1ccc(Nc2c([N+](=O)[O-])c(=O)oc3ccccc23)cc1` here?
Answer: inconclusive: 22.4 µM [activator, single point]

Question: For `CCOC(=O)c1cnc2c(C)c(Cl)ccc2c1Nc1ccc(C)cc1C`, which “activation” value is on record?
Answer: inactive: -0.598%

Question: With `Cc1noc(C)c1C(=O)Nc1nc(-c2cccs2)cs1` as the compound, how does the Potency read?
Answer: active: 15.8 µM

Question: With `Cn1cccc1CC(=O)N/N=C/C(Cl)=C/c1ccccc1` as the compound, how does the Potency read?
Answer: inconclusive: 22.4 µM [activator, single point]

Question: Which Potency does the source give for `CCOc1ccc(OCCC(=O)OCC(=O)N2CCN(S(=O)(=O)c3ccc(C)cc3)CC2)cc1` here?
Answer: inconclusive: 31.6 µM [activator, single point]

Question: With `COc1cc2c(cc1OC)CN(C(=O)c1ccc([N+](=O)[O-])o1)CC2` as the compound, how does the Potency read?
Answer: active: 12.6 µM

Question: Which Potency does the source give for `CCC(CC)c1nnc(NC(=O)/C=C/c2ccco2)s1` here?
Answer: active: 2.51 µM

Question: Which Potency does the source give for `CCOC(=O)C1=C(COC(=O)/C=C/c2cc(Br)ccc2F)NC(=O)NC1C` (stereo not given) here?
Answer: inconclusive: 22.4 µM [activator, single point]

Question: Which Potency does the source give for `CN(C)/N=C/C=C1\CCC/C(=C\c2ccc(F)c(F)c2)C1=O` here?
Answer: active: 17.8 µM

Question: Which Potency does the source give for `CN1C/C(=C/c2ccsc2)C(=O)/C(=C/c2ccsc2)C1` here?
Answer: inconclusive: 3.98 µM [activator, single point]

Question: With `CCCCOC(=O)c1ccc(NC(=O)c2cc(-c3ccccc3)on2)cc1` as the compound, how does the “activation” value read?
Answer: inactive: -0.957%

Question: For `CC1(C)CC(=O)/C(=C\c2cccc([N+](=O)[O-])c2)C(C)(C)N1`, which Potency is on record?
Answer: inconclusive: 22.4 µM [activator, single point]

Question: Which “activation” value does the source give for `O=C(NC1CCCCC1)C(c1ccccc1)N1CCC2(CC1)OCCO2` (stereo not given) here?
Answer: inactive: -0.461%

Question: With `Cc1ccc(/C=C(\C#N)C(=O)Nc2ccccn2)o1` as the compound, how does the Potency read?
Answer: active: 14.1 µM

Question: Which Potency does the source give for `CC(C)N(c1ccccc1)c1ccc(NC(=O)CCl)cc1` here?
Answer: inconclusive: 3.55 µM [activator, single point]

Question: For `C[C@H](O)[C@@H]1C(=O)N2CCc3c([nH]c4ccccc34)[C@@H]2C[C@@H]1N(C)C(=O)Nc1ccccc1`, which Potency is on record?
Answer: inconclusive: 17.8 µM [activator, single point]

Question: Which Potency does the source give for `Nc1c(C(=O)c2cccs2)oc2ccccc12` here?
Answer: inconclusive: 5.62 µM [activator, full curve, poor fit]

Question: For `N#Cc1ccsc1NC(=O)COC(=O)c1cc2ccccc2cc1O`, which Potency is on record?
Answer: inconclusive: 7.08 µM [activator, partial curve, poor fit]

Question: For `O=C(N/N=C/C(Br)=C/c1ccccc1)c1cccnc1`, which Potency is on record?
Answer: inconclusive: 2.82 µM [activator, full curve, poor fit]

Question: Which Potency does the source give for `N#Cc1ccccc1N/C=C/C(=O)c1ccc(Cl)cc1` here?
Answer: inconclusive: 2.82 µM [activator, full curve, poor fit]

Question: For `CCOC(=O)CSc1nnc(CCCCCN2C(=O)c3cccc4cccc(c34)C2=O)o1`, which “activation” value is on record?
Answer: inactive: -0.0534%

Question: Which Potency does the source give for `[O-][n+]1cccc2c(Br)cc(Br)c(O)c21` here?
Answer: inconclusive: 12.6 µM [activator, partial curve]

Question: Which “activation” value does the source give for `CC(/C=N/NC(=O)Cc1cccn1C)=C\c1ccccc1` here?
Answer: inactive: 3.98%

Question: For `COc1ccccc1N1CCN(C(=O)CCSCc2ccccc2F)CC1`, which Potency is on record?
Answer: inactive

Question: For `OC(COc1ccc(-c2ccccc2)cc1)CN1CCCCC1` (stereo not given), which “activation” value is on record?
Answer: inactive: 0.368%

Question: With `CC(=O)c1nn(-c2ccccc2)cc1C(=O)c1cccc(Br)c1` as the compound, how does the Potency read?
Answer: inconclusive: 2.24 µM [activator, full curve, poor fit]

Question: Which Potency does the source give for `COc1c(Cl)cc(C(=O)NCc2ccco2)cc1Cl` here?
Answer: inconclusive: 7.08 µM [activator, partial curve, poor fit]

Question: Which Potency does the source give for `O=C1C(Cl)=C(NCCCN2CCOCC2)C(=O)N1CCc1ccccc1` here?
Answer: inconclusive: 31.6 µM [activator, single point]

Question: For `CC#CC#Cc1cccc(=O)o1`, which Potency is on record?
Answer: inconclusive: 3.55 µM [activator, single point]

Question: Which Potency does the source give for `O=C(CSc1nc(-c2ccco2)nc2cc(=O)[nH]n12)Nc1ccccc1Cl` here?
Answer: active: 14.1 µM

Question: Which Potency does the source give for `NC(=O)CN(N=Nc1cccc([N+](=O)[O-])c1)c1cccc([N+](=O)[O-])c1` here?
Answer: inconclusive: 14.1 µM [activator, partial curve, poor fit]

Question: For `COc1ccc(NC(=O)/C(C#N)=C/c2c(C)nn(-c3ccc(F)cc3)c2Cl)cc1OC`, which Potency is on record?
Answer: active: 15.8 µM

Question: With `COc1ccccc1CNc1nc(-c2ccco2)nn1C(=O)c1ccccc1[N+](=O)[O-]` as the compound, how does the Potency read?
Answer: inconclusive: 5.62 µM [activator, full curve, poor fit]

Question: Which Potency does the source give for `COc1ccc(-c2cc(C(F)(F)F)nc(S(=O)(=O)CCCC(=O)Nc3ccccc3C(F)(F)F)n2)cc1OC` here?
Answer: inconclusive: 5.62 µM [activator, single point]

Question: Which Potency does the source give for `O=C(Nc1cc(Br)ccc1O)c1cc(-c2ccco2)on1` here?
Answer: active: 4.47 µM

Question: Which Potency does the source give for `CC1(C)Cc2c(sc(NC(=O)COc3cccc4ccccc34)c2C#N)C(C)(C)N1` here?
Answer: inconclusive: 20 µM [activator, single point]

Question: For `O=C(Nc1c(Cl)cc2c(c1Cl)Cc1cc([N+](=O)[O-])ccc1-2)C(Cl)Cl`, which Potency is on record?
Answer: inconclusive: 6.31 µM [activator, partial curve]

Source: PubChem BioAssay AID624171 (National Center for Advancing Translational Sciences (NCATS), 2012)
